For this test, the system named is NCI-H322M lung. Put plainly: NCI anticancer screen, dose series, 48 h.

Each structure is given as a SMILES string. “And” between values parts separate entries of the source, which are not always exact repeats. Equal values may be shown once.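 Where inhibition never reached the appropriate level, the endpoint shown equals the highest concentration tested. Otherwise, values were interpolated linearly from a five-concentration, 48-hour dose response in 96-well plates. GI50 = concentration required for 50% inhibition of growth. TGI is the concentration that stops growth completely.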

Consider `CCNC(=O)Oc1ccc(/C(=C(/C)Cc2ccc(OC)cc2)c2ccc(OCCN(CC)CC)cc2)cc1`, for which the GI50 was 2.58 µM and the TGI was 10.8 µM.
In the case of `Clc1ccccc1-c1nnc2c(Cc3ccccc3)nc3ccccc3n12`, the GI50 was above 73.4 µM and the TGI is above 100 µM.
In the case of `Nc1ccccc1C(=O)CCC1C(=O)NC(=S)NC1=O`, the TGI is above 100 µM.
For the compound `COC(=O)/C=C1/OC(c2ccccc2)=C(C)C1=O`, the TGI turned out to be 32.3 µM.
As to `CCCCCCCCCCCCOC1C(CNC(=O)C2OC3OC(C)(C)OC3C2NC(=O)CN2CCN(c3ccc(OC)cc3)CC2)OC2OC(C)(C)OC21` (stereo not given), the GI50 was 8.83 µM and the TGI is 20.9 µM.
For `CC1=CC[C@@]2(C)CC[C@](O)(C(C)C)C2C(OC(=O)c2ccccc2)C1` (stereo not given in full), the TGI was determined as 38.2 µM.
As for `C=CCC(N[C@H](CO)c1ccccc1)c1cn(Cc2ccccc2Cl)c(=O)n(Cc2ccccc2Cl)c1=O` (stereo not given in full), the GI50 is 26.8 µM and the TGI was above 100 µM.
As for `O=[N+]([O-])c1cc([N+](=O)[O-])c(Nn2c3ccccc3c3ccccc32)c([N+](=O)[O-])c1`, the GI50 was 0.312 µM and the TGI is 17.4 µM.
Turning to `COc1cccc(C2SC(N)=Nc3c2c(C)nn3C(=O)Cc2ccccc2)c1` (stereo not given), the TGI was above 100 µM.
The same measure, in the same setting: the value for `Cc1ccc2c(=O)cc(-c3ccc4ccccc4c3)[nH]c2n1` was above 100 µM.
The compound `CC1(C)CCCC(C)(C2CCC3(C)C2C(O)CC2C4(C)CCC(O)C(C)(C)C4CCC23C)O1` (stereo not given) gave a TGI above 100 µM.
`CCCCCCCC/C=C/CCCCCCCC1=NC(C)(C)CN1CCO`: the GI50 was 1.99 µM and the TGI is 4.89 µM.
In turn, `COC(=O)C1=CC2C=CC(C1C(=O)OC)C1C(C(=O)OC)=C(C(=O)OC)C(C(=O)OC)=C(C(=O)OC)C21OC` (stereo not given) showed a TGI above 100 µM.
`Nc1ncnc2c1ncn2C1CCC(CP(=O)(O)O)C1` (stereo not given) gave a TGI above 100 µM.
Same read-out and setting: for `Cc1ccc(C)n2c1nc1ccccc12` the value was above 100 µM.
On to `CCN(CC)CCCC(C)N/C(=C1\C(=O)NC(=O)\C1=C(/NC(C)CCCN(CC)CC)c1cccc(OC)c1)c1cccc(OC)c1` (stereo not given), for which the GI50 is 0.793 µM and the TGI turned out to be 1.93 µM.
Turning to `CC(C)CC(N)C(=O)Nc1ccc2ccccc2c1` (stereo not given), the TGI is above 100 µM.
`CC(C)(Cl)C(Br)CCC(Br)(CCl)C(Cl)CBr` (stereo not given) registered a TGI above 10 µM.
Still for that read-out and setting: the value for `CCN(CC)CCCC(C)Nc1c2cc(OC)cc(C)c2nc2c(C)c(Cl)ccc12` (stereo not given) was 2.93 µM.
Turning to `CC(=O)[CH-]C(=O)c1ccccc1.CC(=O)[CH-]C(=O)c1ccccc1.O=S(=O)([O-])c1cc([O-])c2c([O-])cc(S(=O)(=O)[O-])cc2c1.[Na+].[Zr+4]`, the GI50 is above 100 µM and the TGI is above 100 µM.
For `CC(=O)O[C@H]1C(=O)[C@@]2(C)[C@H]([C@H](OC(=O)c3ccccc3)[C@]3(O)C[C@H](OC(=O)[C@H](O)[C@@H](NC(=O)c4ccco4)c4ccccc4)C(C)=C1C3(C)C)[C@]1(OC(C)=O)CO[C@@H]1C[C@@H]2O`, the TGI is above 12.5 µM.
On to `Cn1c2ccccc2c(=O)c2c(O)cc3c(c21)C=CC(C)(C)O3`, for which the TGI was above 25 µM.
Same read-out and setting: the value for `CN(/N=C\c1ccnc2ccccc12)c1ccc([N+](=O)[O-])cc1` was above 100 µM.
As to `Cc1cc(C)c(-c2c(N)cc(Br)cc2Br)c(N)c1`, the GI50 is 11.7 µM and the TGI was determined as 28.3 µM.
As to `CC(=O)c1cc(C(=O)c2ccc3c(c2)Sc2ccccc2N3)n2ccccc12`, the GI50 is 0.00593 µM and 0.00359 µM; the TGI was above 33.2 µM.
`COc1cc(C2(c3ncc[nH]3)SSSCC2O)ccc1O` (stereo not given) returned a TGI above 100 µM.
On to `COc1ccc(COC(=O)NCC(=O)NC(C)C(=O)NC(Cc2ccccc2)C(=O)OCc2ccccc2)cc1` (stereo not given), for which the GI50 was 27.5 µM and 69.8 µM; the TGI is 83.1 µM and > 100 µM.
With `O=C(N/N=C/c1cc(Br)cc(Br)c1[O-])c1ccccc1O.O=C(N/N=C/c1cc(Br)cc(Br)c1[O-])c1ccccc1O.[Zn+2]`, the TGI was determined as 13.2 µM.
The same measure, in the same setting: the value for `CCc1nc2ccc(N=Nc3c(O)ccc4ccccc34)cc2[nH]1` was above 52.5 µM; that for `Cc1c(N=C/C=C/c2ccccc2)c(=O)n(-c2ccccc2)n1C` was above 100 µM.
On to `CCCc1cc(COC)c(C#N)c(=O)[nH]1`, for which the TGI is above 100 µM.
For the compound `COc1c(-c2ccccc2)nc2ccc(Oc3ccccc3)nn12`, the TGI was above 100 µM.
`CCc1ccc(COC(=O)C2=C(C)NC(C)=C(C(=O)OCc3ccc(CC)cn3)C2C2=COCCO2)nc1` came in with a TGI of 80.3 µM.
As to `COc1ccc(N=NC(=O)NC(CC(C)C)C(=O)NCC(=O)O)cc1` (stereo not given), the TGI was above 100 µM.
As to `COc1cccc(Nc2nc3ccccc3c3occc23)c1`, the GI50 is 2.58 µM and the TGI was determined as 8.92 µM.
For `C#CCN(c1ccc(C(=O)N[C@@H](CCC(=O)N[C@H](CCC(=O)O)C(=O)O)C(=O)O)cc1)C1CCc2cc3nc(CO)[nH]c(=O)c3cc21` (stereo not given in full) the same measures were above 100 µM and above 100 µM.
Consider `CC(C)COc1nc2c(c(=O)n(C)c(=O)n2C)n1C`, for which the GI50 was 17.2 µM and the TGI was above 100 µM.
`COc1ccc([C@@]23Oc4cc(OC)cc(OC)c4[C@]2(O)[C@H](O)[C@H](C(N)=O)[C@H]3c2ccccc2)cc1`: the GI50 is below 0.0121 µM; the TGI was 0.0739 µM and 0.0589 µM.
In the case of `Cn1c2c(c3c(Cl)nncc31)Cc1ccccc1-2`, the GI50 was 42.4 µM and the TGI is above 100 µM.
The matching figures for `CCN(Cc1cccc(Cl)c1)c1ccc(CO)c(Cl)c1`: 11.5 µM and 25.5 µM.
For the compound `Cc1nc2c(o1)C(=Nc1ccccc1)c1nc(C)oc1C2=Nc1ccccc1`, the TGI was determined as 60.6 µM.
On the same count and under the same terms, for `COc1ccc(OC)c2c1C=CC(Br)=CC2` the value was above 1 µM.
Same read-out and setting: the value for `O=C1NN(Cc2ccccc2)C(=O)N2CCC[C@@H]12` was above 100 µM; that for `COc1c(C(=O)NCCN(CCNC(=O)c2cccc(-c3cccc(C(=O)N(C)C)c3OC)c2OC)CCNC(=O)c2cccc(-c3cccc(C(=O)N(C)C)c3OC)c2OC)cccc1-c1cccc(C(=O)N(C)C)c1OC` was above 100 µM.
For `C/C(=C(\c1ccc(OCCN2CCCCCC2)cc1)c1ccc(OC(=O)c2ccccc2)cc1)c1ccc(Cl)cc1`, the GI50 was 5.56 µM and the TGI was found to be 15.6 µM.
On to `O=C(c1ccc(Cl)cc1)c1ccc(OCCCOc2ccc(C(=O)c3ccc(Cl)cc3)cc2Cl)c(Cl)c1`, for which the TGI was above 100 µM.
In turn, `O=C1c2ccccc2C2CCC1c1ccccc12` (stereo not given) displayed a TGI above 100 µM.
Compound `Cn1c2c(c3ccccc31)CCN1C(=O)CCC21` (stereo not given) had a TGI above 10 µM.
Take `COC(C)(C)/C=C/c1[nH]c2ccccc2c1CC(=O)NCCc1cn(C(c2ccccc2)(c2ccccc2)c2ccccc2)cn1`: the TGI is above 100 µM.
Same read-out and setting: for `O=C(NNC(=S)NC1CCCCC1)C12CC3CC(CC(C3)C1)C2` the value was above 100 µM.
For the compound `CSc1ccc(Nc2cc(=O)[nH]c(=O)[nH]2)cc1`, the TGI was above 100 µM.
The same measure, in the same setting: for `COc1ccccc1C(O)[C@@H]1C[C@@H]2[C@H]3CC[C@@](C)([C@@H]2O1)C3(C)C` (stereo not given in full) the value was 50.5 µM; for `C=CCc1c(O)c2nsnc2c2nsnc12`, above 10 µM.
The same measure, in the same setting: for `Nc1c(Cl)ncnc1NCCCCCCCCCCCCNc1ncnc(Cl)c1N` the value was above 100 µM; for `C=CCOC(=O)C1=C(C)NC2=N[C@H](CCCCCCCCC)C[C@@H]3CCC1N23` (stereo not given in full), above 100 µM; for `O=C1O[C@H]2[C@H](OC(=O)c3cc(O)c(O)c(O)c3)[C@@H](OC(=O)c3cc(O)c(O)c4c3[C@@H]3C1=CC(=O)C(O)(O)C3(O)O4)[C@H](OC(=O)c1cc(O)c(O)c(O)c1)O[C@@H]2COC(=O)c1cc(O)c(O)c(O)c1` (stereo not given in full), above 100 µM.
The compound `COc1ccc(-c2c3c(n(C4OC(CO)C(O)C(O)C4O)c(=S)c2C#N)CCCC3)cc1` (stereo not given) registered a TGI above 100 µM.
For `CC(=O)NNc1nc(C)c(C(/C=C/c2ccccc2O)=N/N=C(N)N)s1`, the TGI is above 100 µM.
Still for that read-out and setting: the value for `Cn1cc2ccccc2c1-c1nc(F)nc(Oc2ccc3c(c2)CC[C@@H]2C3CC[C@@]3(C)C2C[C@H](O)[C@@H]3O)n1` (stereo not given in full) was 46.3 µM.
As for `CCNC(=O)OCc1c(COC(=O)NCC)c(-c2ccc(Cl)c(Cl)c2)n2c1CCC2`, the TGI is above 100 µM.
Same read-out and setting: for `CCN(CC)CCN(C)c1ccc(CO)c2c1C(=O)c1ccccc1S2=O` (stereo not given) the value was 20.6 µM.
The same measure, in the same setting: for `CCCCc1ccc(Nc2nc(OC)c3ncn(C4CC(O)C(CO)O4)c3n2)cc1` (stereo not given) the value was 31.1 µM; for `CCOC(=O)NC(Nc1ccc(F)cc1)(C(=O)OCC)C(F)(F)F` (stereo not given), above 100 µM; for `COC1CC(OC2C(C)OC(OC3C(C)OC(OC4C(C)OC(O[C@H]5CC[C@@]6(C)C(=CC[C@]7(O)[C@@H]6C[C@@H](OC(C)=O)[C@@]6(C)[C@]7(O)CC[C@@]6(O)C(C)=O)C5)CC4OC)CC3OC)CC2OC)OC(C)C1O` (stereo not given in full), above 25 µM.
The same measure, in the same setting: for `N[C@@H]1CCN(c2c(F)cc3c(=O)c(C(=O)O)cn4c3c2Oc2cc3c(ccc5ccccc53)cc2-4)C1` the value was above 69.7 µM; for `O=C(CCN1CCCCC1)N1CCc2c([nH]c3ccccc23)C1c1cccnc1` (stereo not given), above 100 µM; for `Clc1cccc(C2N3CCCCC3[C@@H]3c4[nH]c5ccccc5c4CCN23)c1` (stereo not given in full), above 100 µM.
Turning to `O=C1/C(=C/c2ccc(Cl)cc2)CNC/C1=C\c1ccc(Cl)cc1`, the GI50 is 2.3 µM and 4.79 µM.
Regarding `COC(=O)[C@@H]1Cc2c([nH]c3ccccc23)[C@H](c2ccccc2)N1`, the TGI is above 100 µM.
In the case of `CC(C)C1NC(=O)CC(c2ccccc2)N(N=O)C1c1ccccc1` (stereo not given), the TGI was above 100 µM.
Still for that read-out and setting: the value for `Nc1nc(NCCCO)cc(=O)[nH]1` was above 100 µM.
In the case of `CO[C@H]1CC(O[C@@H]2/C(C)=C/C[C@@H]3C[C@@H](C[C@]4(CC[C@H](C)[C@@H](C5CCCCC5)O4)O3)OC(=O)[C@@H]3C=C(C)/C(=N/O)[C@H]4OC/C(=C\C=C\[C@@H]2C)[C@]43O)O[C@@H](C)C1O` (stereo not given in full), the GI50 is 0.851 µM and the TGI was found to be 1.64 µM.
`COc1ccccc1/C=C/C1=NN(c2cccc(S(=O)(=O)O)c2)C2(C1)C(Cl)C(=O)N2c1nc2ccccc2s1` (stereo not given) returned a TGI above 100 µM.
Regarding `CC1NC(=O)C2=C1C(=O)NC(=O)C2` (stereo not given), the GI50 was above 100 µM and the TGI was above 100 µM.
`Cc1cc(=O)n(-c2cc3cccccc-3n2)[nH]1`: the TGI came out at 67.3 µM.
Same read-out and setting: the value for `COc1ccc(S(=O)(=O)N(CC(=O)O)c2ccccc2)cc1` was above 100 µM; that for `Clc1ccc(CCN[C@H]2CCCC[C@H]2N2CCCC2)cc1Cl` was 50.3 µM; that for `NS(=O)(=O)c1cc(C(=O)O)c(O)c2ccccc12` was above 100 µM.
For the compound `Oc1c(Cl)cc(Cl)c2ccc(Cn3cc(-c4ccc(C(F)(F)F)cc4)nn3)nc12`, the GI50 is 12.3 µM and the TGI is 24.8 µM.

For the origin of these results see PubChem BioAssay (NCI).
